According to the supplement of paper PMC10681739:
Over roughly 2,700 sequences, “arbitrary fluorescence units” has its median near 4,100; the highest 2% begin near 54,000. Some of the results follow.

What follows are sequences tested against T1, ETS1 (UniProt P14921) (assay: ETS1 binding intensity (PBM fluorescence) (arbitrary fluorescence units); higher = stronger binding). Conditions: ETS1 concentration 10 nM.
T1 sequence: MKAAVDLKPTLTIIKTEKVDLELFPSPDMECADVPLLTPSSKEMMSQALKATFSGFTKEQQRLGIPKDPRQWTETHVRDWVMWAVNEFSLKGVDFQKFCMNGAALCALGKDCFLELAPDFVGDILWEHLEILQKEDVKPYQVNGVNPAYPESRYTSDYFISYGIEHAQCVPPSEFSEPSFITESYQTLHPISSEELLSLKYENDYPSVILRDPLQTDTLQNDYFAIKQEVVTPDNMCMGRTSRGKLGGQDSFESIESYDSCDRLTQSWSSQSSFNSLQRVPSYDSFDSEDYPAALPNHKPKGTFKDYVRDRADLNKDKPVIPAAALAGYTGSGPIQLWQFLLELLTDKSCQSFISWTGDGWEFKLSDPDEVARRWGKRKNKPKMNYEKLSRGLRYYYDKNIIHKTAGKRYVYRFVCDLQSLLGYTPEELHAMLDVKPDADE
Experimental: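 gcPBM on wild-type 36-bp genomic probes with two neighbouring ETS1 sites (4-24 bp apart). Recombinant human ETS1 (10 nM) was detected with anti-ETS1 antibody fluorescence. Values are medians over 3 replicate spots. The probes sit in constant array flanks that are not printed.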

Row | Sequence | ETS1 binding intensity
1 | AGGCCACACTTCCCCTCGGGCGGCTTCCTGTTTTGG | 7230
2 | CCCCACCTCTTTCCTGTTGAGTAGGAAGTCCCCTTA | 4230
3 | CTCGGTGGAAGGCGGATGGCGGATGTCCGAGTTAGT | 306
4 | TTGACTTCCTGCTTTAGATTTTTTGACTTCCTGAAC | 43000
5 | TGGCTGGAGGCAGGAAGTCAGGAAGGAGGCCACTGT | 6930
6 | CGCCGCTTCCGGGCCCCGCCGCCTGCCGGAAGTGGA | 36900
7 | CGGACTTCCTGCTAGTTAGGCCCGCCTCTTCCGCAG | 36200
8 | GGAGATGTGCAGGAAGTGAACTTCCTGGGGCTGAGG | 11400
9 | GACAGGAAGCCAGCAGGCAGGGAGCCTGGGAAATGT | 3140
10 | GAAGAACGGAAGAGAGAGAGCTGCACTTCCGAACCG | 1330
11 | AGCCTGTTTCCGCTCGGGCATTCTGGGAAGTGTAGT | 13300
12 | TATTCTCATCCGGGGTCACGTCGGTCTTCCGGGTGT | 7280
13 | TCCTTAGAGCGGAAGTACGGCCGGAAGCCCGCCATA | 15200
14 | GAGTTATGGCTTCCTGTACACATTCCTGCCATTTTA | 18400
15 | CTGCAGGATGTTCTAACCATGAGCCCAGGATGTGGT | 1180
16 | ACTCCCACCCCACTTCCTGAGGAAATAGTTGTGGTA | 6550
17 | GGCTTTCAGCTTCCTGACTCACTTCCCCATTTTCTA | 4300
18 | CATTCAGGAAAAGCAGCTGGTTGACAGGAAGCCTGC | 242
19 | GCAGCTCGGATGTGGAGGGTGTAAGTTTCCGGTGGG | 3080
20 | GCATATTTTTAGGATGTGGGAGGAAACAAGAGCAAA | 313
21 | CCGGGAGAGCGGCGGAAGCAGGAAATGCTAAAGGTA | 6050
22 | GGCTCCTTCCTGTGTGGGCCCCTTGGTTTCCTGAGC | 16700
23 | GTCAGCTGGAGGAAGCGGAGTAGGAAGCGGCCGCGA | 329
24 | CTGCTGCCCTGCAGGAAGCGGATGCCAGCCTGGCGG | 1620
25 | GACTCGTGTTTCCGGGTATGACCGGAAATAGCGCAT | 19200
26 | GCTGGCTTCCTGCCTTCACTGCACCGCTTCCGTAGG | 24200
27 | AGGCCCCGCCCGGAAAAACAACATCCTGGCTGCTAG | 2310

Row | Sequence | ETS1 binding intensity
28 | GCGATACGGCCAACTTCCTTCCGCGAAGCCCTCAGG | 2720
29 | CACCACCCGGAAAAGAACGACCGCTTCCGCACTCCC | 1790
30 | AACCTCGATTTTCTTCCGCCATCCGGCTAAATAGTC | 946
31 | CTGCTACAGGAAATCGCTTGTTATTTCCTGTAATGC | 10900
32 | CTGACACAGGGCAGGAAGCCGGAAGCCCACAGTCAT | 2920
33 | TAGCAAGTCACATCCCATGACATCCAGGATGCCCTC | 389
34 | AGATACTCCATTTCCTTTCTAGGGAAGTCTGCCTGC | 12900
35 | TGGAGACTCACTTCCTAGATGAGGAAGTGAAGCTTA | 2380
36 | TTCAGGAAACACCCACAGTGCTCAGACAGGAAATTC | 718
37 | GAGCCCACATCCGGGAGAGGAGAGCGGAAGTGGCGT | 23100
38 | CGCGGAACCCGGAAGTGGTCACGGAACTCGGCTGCG | 19600
39 | GTGCCTCCGGAAGAGCTCCAAACCCGGAAGCAGGCG | 4030
40 | TTAGGTTCTCTTCCGCCCTAGCCGGAAGTCACGGTA | 7640
41 | TACCTCTGCTGAGGAAGCAACTTCCTGTACTGTGAA | 7310
42 | GGAGACAGGAACAAACTCTGTGTATCGGAAGCACAG | 175
43 | TGCTAAACGGAAGTGGTTGTGGAGCATCCGGCTCTG | 9960
44 | TCAGCTTCCTGAGTAGCTGGGACCACAGGAAGGCAC | 10900
45 | GTGGAGGAAACAAGTTGGTGGTTTCTACATCCTGCT | 556
46 | TTCTGCTTCCTGTTTCTGGTACCCGCTTCCTGAGGG | 52200
47 | CATTTACCACTTCCTGAGGTCATTTCCTGTTTTCTT | 25800
48 | CTACTACAGGAAGCTGATGAATCAGGAAGCTGCTCA | 3750
49 | ACGGACACAGGGAAACGTCACAGGAAAGGGAGCCCA | 176
50 | TTCTGCCACAGGAAGTCAGCGCATCCGCGGGGCCGA | 7570
51 | GAACCGGCGCTTCCTTTCGCCGCTTCCGCCGCCATC | 8630
52 | CTGCGCCCGACGGCGGAAGTTCCGGGAGTGCCAAGT | 4510
53 | GGCTGGGAAATGTAGTCTGTGTGTCCAGGAAGTAAA | 248
54 | GCCCGGAACCGCTGCAGCAGCCCGAGCCGGAAGTGC | 2500

Row | Sequence | ETS1 binding intensity
55 | TGCCACAAGGGAAGTAGTGTTACTTCCTGTCTCTGA | 14200
56 | CCCCATTTCCCGTAAGGCAACAGATGTTTCCTGTGC | 7010
57 | CCTTAGATCCTGTTTATGCAGCCTGGTATCCTGTTG | 2510
58 | AGTGAATTGCTTCCTGTGTCTGCTTCCTGAGCTTAT | 23300
59 | AAGAAAAGAACGGATGAGAGAGGAAACGGTCGACGG | 442
60 | CAACAATACAGGATGTCAGTACAGGAAATGCAGGGA | 6360
61 | GCATCTCAAAGAGGAAGCCAGGAAACACTCTCACCT | 539
62 | TTAAGGCCGGAAACACGTCGGAGGCGGAAAACCCTG | 9120
63 | TGCTGGAGATGAGGAAGTGAGGAAATACCCAGGGCG | 518
64 | GCCTCACTTCCTGTGTTCAAGTGACAGGATGTGACA | 70700
65 | CCCGGCGGATACAAGGGGGCTCCGCCATCCGCTCCC | 394
66 | AGCCCCACCATTTCCTGTGACTTCCTGGAGCCTGGC | 25600
67 | TGGCCTTTCACTTCCTGTCCCTTCCTCCAACCCCAA | 31600
68 | AGGTGGCAGGAATGTGCTGTGGGCTTCCGGGACACA | 586
69 | CTGGGCAATCTCACTTCCCTTCCTGCCTTCCTTGGA | 3680
70 | AAAGTTTCCGCCCATACCATTGAATAACATCCTGTT | 19800
71 | CAGAGGAAATCGTATTTTCAGAAGCAACTTCCTTCA | 918
72 | CCTACAATTCCTGTTTTGGAGACCGCTTCCGGCAGC | 3700
73 | GTGACTCCATTTCCTGCCTACACTTCCGCTAGCTCT | 33400
74 | CAGACACACGTCTTCCGGGTTTCCTACGAATCAGAC | 7820
75 | GTCCTACCTTTCCGTTCTCAAGCAGGATATGCTGGG | 1730
76 | AAGCTCCAGGAAACCCAAGCCCGCAGGATGCCAGAG | 274
77 | CAGATTCCTCCGGAATATAGCGGAAGCGCGGGGTTG | 1170
78 | TGACCACTTCCTGGGGTAACTCCCCCGGAAATGCCC | 19000
79 | TCAGATTCATGCTTCCTGTCCTTCCTGAAAACTGGC | 12200
80 | TGAAAAGGAAATATAAAGATGCAGGAGGAAGGGGCA | 266
